Results on one molecule are retold here after patent publication US20240277806A1 (published 2024).

The target of one test is T1, GDF11 (UniProt O95390 299-407).
T1 chain: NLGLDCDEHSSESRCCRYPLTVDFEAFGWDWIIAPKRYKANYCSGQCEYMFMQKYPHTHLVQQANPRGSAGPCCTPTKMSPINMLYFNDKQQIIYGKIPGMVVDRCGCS
Put plainly: Biacore.

For the next test, the target named is T2, activin A (UniProt P08476 311-426).
T2 chain: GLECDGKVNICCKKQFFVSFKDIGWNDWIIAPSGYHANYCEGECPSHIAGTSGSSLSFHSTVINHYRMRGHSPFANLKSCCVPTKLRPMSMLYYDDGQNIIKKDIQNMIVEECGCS
Put plainly: Biacore.

B1: ActRIIA-hFc (Fc fusion)
chain: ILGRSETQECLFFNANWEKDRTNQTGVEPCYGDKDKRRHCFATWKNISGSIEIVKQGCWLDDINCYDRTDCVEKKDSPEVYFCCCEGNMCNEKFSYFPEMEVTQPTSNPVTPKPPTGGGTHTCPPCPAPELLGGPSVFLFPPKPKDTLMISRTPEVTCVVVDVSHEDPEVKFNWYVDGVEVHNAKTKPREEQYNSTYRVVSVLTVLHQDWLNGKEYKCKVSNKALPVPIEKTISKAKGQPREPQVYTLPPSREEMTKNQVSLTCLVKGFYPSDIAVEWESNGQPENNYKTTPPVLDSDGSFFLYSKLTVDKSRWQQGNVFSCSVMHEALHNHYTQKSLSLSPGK
On to B1, for which the results for the Kd with GDF11 and with activin A were 9.96 nM and 0.005 nM, respectively.
